Test results reported in PubChem BioAssay (NCATS).
The shares of active, inactive and inconclusive entries below differ from those in the screen. Potencies of inconclusive entries are doubtful fits and often do not repeat. Activity calls are given as the source filed them. The call rests on the fitted dose curve; in most records, active means well fitted inhibition curve with a large enough effect; inconclusive means small, poorly fitted or top-dose-only effect; inactive means no such curve, though single readings can be large or run the other way. Where a SMILES comes first, the peptide text is derived from it. [ ]: non-standard residue; d: D form. Dip = N[C@H](C(=O)O)C(c1ccccc1)c1ccccc1

Assay: qHTS to identify inhibitors of the type 1 interferon - major histocompatibility complex class I in skeletal muscle: primary screen against the NCATS Mechanism Interrogation Plate v5.0 (MIPE) Libary (AID 1347411); further: nearly all actives have a fitted effect of over 65% in size;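 on activity change, negative = inhibition: plate controls were vehicle for no effect and reference inhibitor for full effect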
Details: iHSKM cells + IFN-b, HiBiT-tagged MHC-I luminescence, 24 h; activity change, negative = inhibition: at 45.8 µM (top of the series)
Procedure, shortened: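 Luminescence from HiBiT-tagged endogenous HLA-B*08:01 served as the MHC class I read-out. CRISPR-engineered C25cl48 human myoblasts received 4.0 ng/ml IFN-beta plus compound for 24 hrs, with an 11-point, 1:3 series topping at 46 uM final.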
Potency means the concentration at half of the fitted maximal effect; tags describe the fitted curve by direction and shape.

SMILES | Potency | activity change, negative = inhibition
CCCS(=O)(=O)c1nc(NC2CC2)cc(-c2ccc3c(ccn3C3CC(C)(C)NC(C)(C)C3)c2)n1 | inconclusive: 1.55 µM [inhibitor, full curve, poor fit] | 
COc1ccccc1C(=O)Nc1cc2c(cc1N1CCNC[C@H]1C)n(C)c(=O)n2C | inconclusive: 20.8 µM [inhibitor, single point] | 
CN1CC[C@@H](NC(=O)Nc2ccc(C#N)cc2)C[C@@H]1c1nc2ccccc2[nH]1 |  | inactive: -15.2%
Nc1nc(-c2nn(Cc3ccccc3F)c3ncccc23)ncc1C1CC1 |  | inactive: -14.5%
COc1cc(N2CCN(C)CC2)ccc1Nc1ncc2c(n1)N(C)c1ccccc1C(=O)N2 | inconclusive: 41.5 µM [inhibitor, single point] | 
N#Cc1c(N)nc(N)nc1N[C@H](c1nc2c(F)ccc(Cl)c2c(=O)n1-c1cccnc1)C1CC1 | inconclusive: 16.5 µM [inhibitor, partial curve] | 
Cc1cc(O)c(-c2ccc([C@@H](C)CN)cc2)c2c1[nH]c(=O)c1sccc12 | inconclusive: 0.0131 µM [inhibitor, full curve, poor fit] | 
CN(C)CCCOc1ccc(-c2ccc3ncc4c(c3c2)n(C2CCOCC2)c(=O)n4C)cn1 | inconclusive: 5.71 µM [inhibitor, partial curve] | 
NCCCC[C@H](NC(=O)[C@@H](NC(=O)[C@H](Cc1c[nH]c2ccccc12)NC(=O)[C@H](CCCCN)NC(=O)[C@H](CCCCN)NC(=O)[C@H](Cc1c[nH]c2ccccc12)NC(=O)[C@H](Cc1c[nH]c2ccccc12)NC(=O)[C@H](CCCCN)NC(=O)[C@@H](N)CCCCN)C(c1ccccc1)c1ccccc1)C(N)=O (H-KKWWKKW[Dip]K-NH2) | inconclusive: 14.7 µM [inhibitor, partial curve, poor fit] | 
COc1cc2c3c(n(CCCn4ccnc4)c(=O)c2cc1OC)-c1cc2c(cc1C3=O)OCO2 |  | inactive: 4.61%
NC(=O)/C(=C/n1cnc(-c2cc(C(F)(F)F)cc(C(F)(F)F)c2)n1)c1cncnc1 | active: 3.3 µM | 
CNC(=O)[C@@H](NC(=O)[C@H](CC(C)C)[C@H](O)C(=O)NO)C(C)(C)C |  | inactive: 37.3%
CC(C)(C)S(=O)(=O)c1ccc2nccc(Nc3n[nH]c4ccc(F)cc34)c2c1 | inconclusive: 16.5 µM [inhibitor, partial curve, poor fit] | 
C=C1/C(=C\C=C2/CCC[C@]3(C)[C@@H]([C@H](C)CCCC(C)(C)O)CC[C@@H]23)C[C@@H](O)C[C@@H]1O | inconclusive: 33 µM [inhibitor, partial curve, poor fit] | inconclusive: -38.4% [inhibitor]
N[C@@H](CCC(=O)O)C(=O)N[C@@H](Cc1c[nH]c2ccccc12)C(=O)O (H-Glu-Trp-OH) |  | inactive: 17.8%
Cc1ccc([C@@H]2O[C@H](CO)[C@@H](O)[C@H](O)[C@H]2O)cc1Cc1ccc(-c2ccc(F)cc2)s1 |  | inconclusive: -41.2% [inhibitor]
CC(C)n1c(=O)cc(N[C@@H](C)c2ccccc2)[nH]c1=O |  | inactive: 21.4%
OC[C@H]1O[C@@H](S[C@@H]2O[C@H](CO)[C@H](O)[C@H](n3cc(-c4cccc(F)c4)nn3)[C@H]2O)[C@H](O)[C@@H](n2cc(-c3cccc(F)c3)nn2)[C@H]1O |  | inactive: 14.3%
O=c1c(-c2ccc(O)cc2)coc2cc(O[C@@H]3O[C@H](CO)[C@@H](O)[C@H](O)[C@H]3O)ccc12 | inconclusive: 16.5 µM [inhibitor, partial curve, poor fit] | 
CC[C@H](Nc1ncnc2nc[nH]c12)c1oc2ccccc2c(=O)c1-c1cccc(F)c1 | inconclusive: 29.4 µM [inhibitor, single point] | 

SMILES | Potency | activity change, negative = inhibition
Cc1nc(NC(=O)N2CCC[C@H]2C(N)=O)sc1-c1csc(C(C)(C)C)n1 |  | inactive: -29.9%
Cc1c(O)cccc1C(=O)NC(CSc1ccccc1)C(O)CN1CC2CCCCC2CC1C(=O)NC(C)(C)C (stereo unspecified) | inconclusive: 29.4 µM [inhibitor, single point] | 
C[C@H]1CNC(=O)c2cnn3ccc(nc23)N[C@H](C)c2cc(F)ccc2O1 | active: 1.17 µM | 
Cc1ccc(Nc2cc(N[C@@H]3CCCC[C@@H]3N)nnc2C(N)=O)nc1C | inconclusive: 18.6 µM [inhibitor, partial curve] | 
C=CC(=O)Nc1ccc(F)c(-c2ncnc3[nH]cc(C(=O)OCC)c23)c1 | inconclusive: 10.4 µM [inhibitor, partial curve] | 
[O-][n+]1cccc(-c2nc3c(Cl)cccc3cc2[C@@H](Nc2ncnc3cccnc23)C(F)(F)F)c1 | inconclusive: 4.66 µM [inhibitor, partial curve] | 
CC(C)n1ncnc1-c1cn2c(n1)-c1ccc(O[C@@H](C)C(N)=O)cc1OCC2 |  | inactive: -21.1%
C=C1C(=O)O[C@@H]2[C@H]3C(C)=CC[C@@]34O[C@@]4(C)CC[C@@H]12 | active: 16.5 µM | 
C=C1C(=O)O[C@H]2C[C@H](C)C(/C=C/C(C)=O)=CC[C@H]12 | active: 6.58 µM | 
COc1ccc([C@@H](O)[C@@H](C)Oc2ccc([C@H]3O[C@H](c4ccc(O[C@H](C)[C@H](O)c5ccc(OC)c(OC)c5)c(OC)c4)[C@H](C)[C@H]3C)cc2OC)cc1OC |  | inactive: -36.8%
COC1CC(C(=O)c2ccc3c(N)ncc(-c4ccc(-c5cnn(C)c5)cc4)c3n2)C1 (stereo unspecified) | inconclusive: 0.0131 µM [inhibitor, full curve, poor fit] | 
c1ccc(-c2cc(CCC3CCNCC3)c3ccccc3n2)cc1 | inconclusive: 29.4 µM [inhibitor, single point] | 
Nc1n[n+]([O-])c2ccccc2[n+]1[O-] |  | inactive: -24.7%
COCCOC(=O)N1CCN(S(=O)(=O)c2cc(F)c(Oc3ccc(Cl)cc3)c(F)c2)C(C(=O)NO)C1 (stereo unspecified) | active: 18.6 µM | 
CCc1cc2c(c(OCC(F)(F)F)c(C(=O)NC3CCN(C(=O)CO)CC3)n2C)c(=O)n1CC(=O)c1ccccc1 |  | inactive: 10.2%
Cc1ccc(Nc2nnc(Cc3ccncc3)c3ccccc23)cc1Br | inconclusive: 29.4 µM [inhibitor, partial curve] | 
O=C(Nc1ncc(SCCN2CCCC2)s1)[C@]1(c2ccc(S(=O)(=O)C3CC3)cc2)C[C@H]1C1CCCCC1 | inconclusive: 29.4 µM [inhibitor, single point] | 
O=C1NC(=O)/C(=C/c2ccc3nccc(-c4ccncc4)c3c2)S1 | active: 0.829 µM | 
Fc1cccc(-n2cnc3c(NCc4nc5c(F)c(F)ccc5[nH]4)nc(N4CCOCC4)nc32)c1 | active: 0.523 µM | 
CN(C)CCNC(=O)NC[C@H]1CC[C@@H]2[C@H](O1)c1cc(C(F)(F)F)ccc1N[C@H]2c1ccccc1 |  | inactive: -1.67%
